According to PubChem BioAssay AID493208 (National Center for Advancing Translational Sciences (NCATS), 2011):
Screen size: about 44,000 compounds; about 340 (0.77%) were called active. Roughly 5% stayed inconclusive and do not appear here. Calls come from the whole dose curve; as a rule, active = well fitted inhibition curve with a large enough effect; inconclusive = small, poorly fitted or top-dose-only effect; inactive = flat fitted curve, though single readings scatter. This is one part of the list.

Assay: Acumen qHTS Assay for Inhibitors of the mTORC1 Signaling Pathway in MEF (Tsc2-/-, p53-/-) Cells: Sytravon;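 note: plate controls were DMSO for no effect and rapamycin for full effect; nearly all actives have a fitted effect of over 50% in size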
Settings: phospho-rpS6 immunofluorescence/PI, 24 h; series mostly up to 38.3 µM; activity change, negative = inhibition: at the top concentration
Method in brief: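 Immunofluorescence of rpS6 phosphorylation in Tsc2-/-, p53-/- MEFs after 24 h compound exposure, normalized to propidium iodide signal. Activity is expressed as % positive cells, thresholded with 7.5 nM rapamycin.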

Activity change, negative = inhibition, inactive:
CCOc1ccc(CNC(=O)CN2C(=O)CSc3ccc(S(=O)(=O)N4CCOCC4)cc32)cc1OC 6.5%
Cn1c(=O)cc(OCC(=O)N2CCN(c3ccccc3F)CC2)c2ccccc21 -2.1%
O=C(CCCCn1c(=O)c2ccccc2n(Cc2ccccc2F)c1=O)NCc1ccc2c(c1)OCO2 -3.24%
O=C(NCc1ccc(Cl)cc1)C1(c2cccs2)CCOCC1 -6.5%
COc1ccc(-c2noc(-c3cc(C(C)C)[nH]n3)n2)cc1 -15.9%
Cc1ccc(OCCSc2nc3ccccc3n2CC(=O)N2CCCCC2)cc1C -7.26%
COC(=O)c1ccccc1NC(=O)CCn1nc(C)c2c(C)n(-c3ccccc3)nc2c1=O 1.51%
CC(=O)c1cccc(Nc2cc(C)nc3nc(-c4ccccc4C)nn23)c1 0.367%
Cc1ccc(CNC(=O)C2CCCN(c3nc4c(C)cc(C)cc4s3)C2)cc1 (centres undefined) 0.707%
O=C(Nc1ccc(NC(=O)c2cccs2)cc1)c1ccc(Cl)cc1 -12.6%
COC(=O)c1ccccc1NC(=O)Cn1ncc2c(C)n(Cc3ccc(F)cc3)c(C)c2c1=O -2.25%
O=C(COc1ccccc1)NCCc1csc(-c2ccc(F)cc2)n1 4.2%
CN(C(=O)Cn1c(=O)n(Cc2ccc(C(=O)NCc3ccc4c(c3)OCO4)cc2)c(=O)c2ccccc21)c1ccccc1 3.87%
COc1ccc(CNC(=O)CCc2nc3cccnc3n2Cc2ccc(OC)cc2)cc1 -10.9%
O=C(Cn1cc(S(=O)(=O)Cc2cccc(Cl)c2)c2ccccc21)Nc1ccc(F)c(Cl)c1 -0.818%
CCCCOc1ccc(Cn2c(=O)oc3ccccc32)cc1 -5.73%
Cc1ccccc1Cc1c(C)nc2c(-c3ccccc3)c(C)[nH]n2c1=O 10.3%
CCOc1ccc(OCC(=O)NCCS(=O)(=O)N2CCN(c3ccc(OC)cc3)CC2)cc1 -23.4%
Cc1ccc(NC(=O)Cn2c(=O)n(CCc3ccccc3)c(=O)c3sc4ccccc4c32)cc1C -3.19%
COc1ccccc1CNS(=O)(=O)c1cc(-c2cc(C)no2)ccc1C 1.22%
O=C(NCc1cccc(Cl)c1)c1oc(=O)c2ccccc2c1-c1ccccc1 0.804%
Cc1nn(CCCC(=O)NCCc2ccc(Cl)cc2)c(=O)c2nn(-c3ccccc3)c(C)c12 0.174%
COc1ccc(C2CC(=O)c3cc(-c4nc(-c5cccc([N+](=O)[O-])c5)cs4)c(=O)n(-c4ccccc4C)c3C2)cc1 (centres undefined) 1.33%
CCn1c(=O)c(C(=O)Nc2cc(OC)c(OC)c(OC)c2)nc2ccccc21 0.657%
O=C(NCc1ccccc1F)c1cccc(NC(=O)N2CCSc3ncccc32)c1 0.0274%
Cc1ccc(-c2cc(NC(=O)COc3c(C)cc(C)cc3C)on2)cc1 -0.817%
COc1ccccc1C(=O)NCCc1csc(-c2ccc(C(F)(F)F)cc2)n1 -15.1%
COc1cc(NC(=O)Cn2c(=O)n(CC3CCCO3)c(=O)c3cc(OC)c(OC)cc32)cc(OC)c1 (centres undefined) 0.985%
CCc1ccc(C2CC(=O)N(c3cccc(C(F)(F)F)c3)C3=C2C(=O)OC3)cc1 (centres undefined) -4.2%
CCOCCc1nn2c(=O)cc(COC(=O)c3ccc(NC(=O)c4ccc(F)cc4)cc3)nc2s1 -7.4%
Cc1ccc(C)c(NC2=C(c3ccc(C(F)(F)F)cc3)C(=O)c3ccccc32)c1 -11%
CC(=O)N1CCc2cc(CNC(=O)Nc3ccccc3C(F)(F)F)ccc21 -2.37%
Cc1cccc(Cn2nnc3c(=O)[nH]c(C4CCCN(C(=O)c5ccc(C(C)(C)C)cc5)C4)nc32)c1 (centres undefined) -1.24%
CCCN1CCCc2cc(CN(CCCN3CCOCC3)C(=O)Nc3ccc(OCC)cc3)ccc21 -13.1%
COc1ccc2c(CNC3CCC(C)CC3)c(C(=O)O)n(Cc3ccccc3)c2c1 (centres undefined) 1.95%
Cn1c2ccccc2c2c(C(=O)N3CCN(c4cccc(C(F)(F)F)c4)CC3)cn(C3CCCCC3)c(=O)c21 2.46%
CCOc1ccccc1CNC(=O)C1CCN(Cc2cc3ccccc3n2Cc2ccccc2)CC1 -9.52%
Cc1ccc(-c2cn3nc(N4CCC(C(=O)Nc5ccccc5C)CC4)sc3n2)cc1 8.06%
Cc1ccc2oc(C(=O)Nc3ccc(S(=O)(=O)Nc4ncccn4)cc3)cc(=O)c2c1 0.856%
CN(C)S(=O)(=O)N(CC(=O)NCCSc1ccc(Cl)cc1)c1ccccc1 2.86%
CCC(C(=O)Nc1cc(OC)ccc1OC)n1nc(-c2ccccc2)c2c(c1=O)CCCC2 (centres undefined) -19.7%
COc1cc2nc(NC(=O)c3ccc(S(=O)(=O)N4CCCC4)cc3)sc2cc1OC -11.2%
O=C(COCc1cc(-c2ccc3c(c2)OCO3)on1)N1CCN(c2cccc(C(F)(F)F)c2)CC1 0%
CCCS(=O)(=O)c1nc(S(=O)(=O)c2ccc(C)cc2)c(NC(C)c2ccccc2)s1 (centres undefined) -10.7%
CN1C(C(=O)NC(C)(C)C)=CC(c2ccc3c(c2)OCO3)=NS1(=O)=O -1.47%
COc1cccc(NS(=O)(=O)c2ccc3[nH]cc(C(=O)NCCc4ccc(C)cc4)c(=O)c3c2)c1 1.83%
Cc1cc(C)c2oc(C(=O)Nc3nc4ccc(Cl)cc4s3)cc(=O)c2c1 4.7%
Cc1ccc(-n2ccnc(NCc3cccs3)c2=O)cc1C -4.94%
Cc1cccc(Cn2c(SCc3ccc(C(=O)NCc4ccccc4F)cc3)nc3cccnc32)c1 -12.4%
CCC(=O)N1CCc2cc(S(=O)(=O)NCCC(=O)Nc3cccc(SC)c3)ccc21 -10.8%
O=C(COc1ccccc1F)Nc1ccc2nc(SCc3ccccc3)sc2c1 1.41%
COc1ccc2oc(=O)c(-c3nc4ccc(C)cc4[nH]3)cc2c1 -4.65%
CCOC(=O)c1cc(-c2ccc(F)cc2)n(CCC(=O)NCc2ccc(C)cc2)c1C -15.6%
COc1ccc(Br)cc1CC1C(=O)Nc2ccccc21 (centres undefined) -27.3%
CN(C(=O)NCc1noc2ccccc12)c1cccc(Cl)c1 -4.73%
COc1ccccc1NC(=O)C1=C(C)Nc2nc(SCc3ccccc3Cl)nn2C1c1cccnc1 (centres undefined) -24.9%
Cc1ccc2c(c1)sc1nc(=O)n(-c3cccc(Cl)c3)c(=O)n12 -12%
CCCN1C(C(=O)c2ccccc2)=C(OC(=O)C(C)(C)C)c2ccccc2S1(=O)=O -7.94%
Cc1ccc(NC(=O)CN2CCN(C3CCCCC3)C(=O)C2=O)cc1C 0%
Cc1ccc(NC(c2cccc(Cl)c2)c2nnc(-c3ccccc3)o2)cc1F (centres undefined) 0.493%
CCOC(=O)C1CCN(C(=O)Cn2nc(CC)n3c(cc4occc43)c2=O)CC1 -14.5%
CCCCc1nn2c(C)c(-c3ccc(OCC)cc3)nc2s1 -9.36%
Cc1cc(Cl)ccc1NS(=O)(=O)c1cc2[nH]c(=O)c(=O)[nH]c2cc1C -0.195%
Cc1ccc(-n2c(=O)[nH]c3sc4c(c3c2=O)CCNC4)cc1C 4.7%
O=C(Cn1ncc2c3ccccc3n(Cc3cccc(Cl)c3)c2c1=O)N1CCCCC1 1.29%
COc1ccc(CN2C(=O)c3ccccc3C2C(=O)NC2CCCCCC2)c(OC)c1 (centres undefined) -0.725%
CCc1ccc(-c2nn(CC(=O)NC3CCCCC3)c3c2cnc2ccc(OC)cc23)cc1 -12.2%
COc1ccc(CC(=O)Nc2sc3c(c2C(=O)Nc2c(C)cccc2C)CCCCC3)cc1 -2.14%
COc1ccc(NC(=O)CSC2=Nc3ccccc3C3=NC(CC(=O)NCc4ccc(F)cc4)C(=O)N23)cc1 (centres undefined) -1.1%
Cc1ccc(Cl)cc1NC(=O)C(=O)NCCc1sc(-c2ccc(F)cc2)nc1C 0.983%
COc1cccc(NC(=O)/C(C#N)=C\c2cn(Cc3ccc(Cl)cc3)c3ccccc23)c1 7.44%
COc1ccc(CNC(=O)Cn2c(=O)oc3cc(S(=O)(=O)N4CCCC4)ccc32)cc1 -8.22%
CCCOc1ccc(C(=O)Nc2c(C(=O)c3ccc(C)cc3)oc3ccccc23)cc1 -15.6%
Cc1cc(C(F)F)n2nc(C(=O)Nc3ccc(F)c(Cl)c3)nc2n1 -7.54%
Cc1ccc(Cl)cc1N1CCN(C(=O)c2ccc(C)c(-n3c(C)nc4cccnc43)c2)CC1 -2.97%
CCc1nc2ccc(C(=O)N3CCN(c4ccc(Cl)cc4)CC3)cc2nc1CC 2.28%
CCCCc1ccc(C(=O)N/C(=C\c2ccc(C)cc2)C(=O)NC2CCCCC2)cc1 4.45%
COc1ccc2c(C)c(CCC(=O)NCCc3ccc(Cl)cc3)c(=O)oc2c1 5.64%
COc1cccc(Nc2nc(-c3ccccc3)c3cc(C)ccc3n2)c1 7.95%
Cc1cccc(CNC(=O)c2ccc(Cn3c(=O)c4cccn4c4cccnc43)cc2)c1 5.53%
O=C(CC1N=C2c3ccccc3N=C(SCc3ccccc3F)N2C1=O)NCc1cccs1 (centres undefined) -0.837%
COc1cc(C2CC(=O)Nc3c2c(=O)nc2c(C)cccn32)cc(OC)c1OC (centres undefined) -4.95%
CC1CCCCN1S(=O)(=O)c1ccc2c(c1)oc(=O)n2CC(=O)Nc1ccc(Cl)cc1 (centres undefined) -7.48%
Cc1ccc(NC(=O)C(Cc2ccccc2)NS(=O)(=O)c2cccc3nsnc23)c(C)c1 (centres undefined) -10.9%
Cc1nn2c(-c3cccc(NC(=O)c4ccc(Cl)cc4)c3)nnc2c2ccccc12 -2.08%
CCS(=O)(=O)N1CCc2cc(C(=O)Nc3cc(Cl)ccc3C)ccc21 0.573%
CCn1c(=O)n(CC)c2cc(N3CCCCC3)c(NC(=O)Nc3cc(Cl)ccc3OC)cc21 3.2%
CC(C)C(=O)Nc1ccc2nc(SCCOc3ccccc3)sc2c1 -0.201%
CCOC(=O)c1c(C)[nH]c(CCC(=O)Nc2ccccc2C(=O)OC)c1C -0.573%
COc1ccc(-n2c(-c3ccco3)nc3c(cnn3-c3ccc(C)cc3)c2=O)cc1 -5.62%
Cc1ccc(N2CCN(C(=O)c3cn(C)c4ccc(S(=O)(=O)N(C)C5CCCCC5)cc4c3=O)CC2C)cc1 (centres undefined) -0.0036%
COc1ccc(CCNC(=O)CCS(=O)(=O)c2ccc3c(c2)oc(=O)n3C)cc1OC 4.22%
O=C(Nc1ccc2nn(-c3ccccc3)nc2c1)c1ccc(-c2cccc(Cl)c2)o1 -14.4%
CCOc1ccc(NS(=O)(=O)c2ccc(NC(=O)N3CCCC3)cc2)cc1 -0.644%
